{
  "source": "paper PMC8190136",
  "about": "“Structural insight on assembly-line catalysis in terpene biosynthesis” (Nature Communications, 2021)",
  "key": {"[1]": {"molecular_target": "fusicoccadiene synthase (PaFS), full-length wild-type (Diaporthe amygdali, UniProt A2PZA5)", "sequence (A2PZA5 whole entry, looked up)": "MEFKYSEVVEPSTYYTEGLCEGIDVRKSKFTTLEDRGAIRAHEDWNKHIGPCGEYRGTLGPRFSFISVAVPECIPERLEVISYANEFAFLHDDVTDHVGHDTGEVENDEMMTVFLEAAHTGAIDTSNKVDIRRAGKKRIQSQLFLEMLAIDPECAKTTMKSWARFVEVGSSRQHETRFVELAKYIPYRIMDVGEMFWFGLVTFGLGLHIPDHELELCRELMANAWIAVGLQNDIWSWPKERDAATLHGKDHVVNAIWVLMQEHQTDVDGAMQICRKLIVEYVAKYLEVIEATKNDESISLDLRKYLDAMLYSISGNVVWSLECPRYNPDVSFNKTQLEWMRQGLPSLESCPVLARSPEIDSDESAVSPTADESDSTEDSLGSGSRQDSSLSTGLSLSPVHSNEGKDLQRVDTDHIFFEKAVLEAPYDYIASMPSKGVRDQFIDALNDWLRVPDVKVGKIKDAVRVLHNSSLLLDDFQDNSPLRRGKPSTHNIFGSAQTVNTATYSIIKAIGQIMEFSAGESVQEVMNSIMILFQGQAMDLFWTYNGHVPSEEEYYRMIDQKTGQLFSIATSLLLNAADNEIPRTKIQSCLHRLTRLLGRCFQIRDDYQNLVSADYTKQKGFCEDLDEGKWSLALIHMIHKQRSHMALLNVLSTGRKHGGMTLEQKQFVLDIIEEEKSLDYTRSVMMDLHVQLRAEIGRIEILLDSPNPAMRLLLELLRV", "conditions": "substrate inhibition by GGPP in cyclase reaction; fit to [GGPP] ≤ 80 µM; Hill n = 3.0; 50 nM PaFS, 50 mM Tris-HCl pH 7.5, 1 mM MgCl2, 21°C"}, "[2]": {"tested_on": "CC(C)=CCC/C(C)=C/CC/C(C)=C/CC/C(C)=C/COP(=O)(O)OP(=O)(O)O", "experiment": "purified protein", "conditions": "cyclase reaction, sigmoidal with substrate inhibition, Hill n = 3.0 ± 0.4, fit to [GGPP] ≤ 80 µM, 50 nM PaFS, 50 mM Tris-HCl pH 7.5, 1 mM MgCl2, 21°C"}, "[3]": {"tested_on": "CC(C)=CCOP(=O)(O)OP(=O)(O)O", "experiment": "purified protein", "conditions": "prenyltransferase reaction, co-substrate 600 µM IPP, sigmoidal, Hill n = 2.0 ± 0.3, 1.79 µM PaFS, 50 mM Tris-HCl pH 7.5, 1 mM MgCl2, 21°C"}},
  "data": [
    {"compound": "CC(C)=CCC/C(C)=C/CC/C(C)=C/CC/C(C)=C/COP(=O)(O)OP(=O)(O)O", "note": "[GGPP]", "values": [
      {"measurement": "Ki", "setting": "[1]", "result": "290 ± 60", "unit": "µM"}
    ]},
    {"compound": "fusicoccadiene synthase (PaFS), full-length wild-type (Diaporthe amygdali)", "values": [
      {"measurement": "Km", "setting": "[2]", "result": "6.4 ± 0.4", "unit": "µM"},
      {"measurement": "kcat", "setting": "[2]", "result": "0.059 ± 0.004", "unit": "s⁻¹"},
      {"measurement": "Km", "setting": "[3]", "result": "139 ± 16", "unit": "µM"},
      {"measurement": "kcat", "setting": "[3]", "result": "1.01 ± 0.09 × 10^-3 s^-1"}
    ]}
  ]
}
